Laboratory results from the supplement of paper PMC4967469.

How the values were obtained:
Test in all cases: Viability of human cancer cell lines after 72 h of drug (GDSC screen)
[1] = compound: CO[C@H]1C[C@@H]2CC[C@@H](C)[C@@](O)(O2)C(=O)C(=O)N2CCCC[C@H]2C(=O)O[C@H]([C@H](C)C[C@@H]2CC[C@@H](OC(=O)C(C)(CO)CO)[C@H](OC)C2)CC(=O)[C@H](C)/C=C(\C)[C@@H](O)[C@@H](OC)C(=O)[C@H](C)C[C@H](C)/C=C/C=C/C=C/1C [Temsirolimus]; details: top dose 0.2 µM
Experimental: (§1)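 Human cancer cell lines in 384-well plates, medium with 10% serum, drug for 72 h over a 256-fold dose range (nine 2-fold or five 4-fold steps up to the top dose). Adherent lines were fixed and stained with the nucleic acid dye Syto60, suspension lines read with resazurin; signal relative to control wells, capped at 0 and 100%. One two-parameter sigmoid per drug and line, fitted in a mixed model over all curves with the slope shared within a line.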

[2] = compound: CC(=O)O[C@@H]1[C@@H](OC(C)=O)[C@@H](O)[C@H](Oc2c(-c3ccc(O)cc3)oc3cc(O)cc(O)c3c2=O)O[C@H]1C [SL 0101-1]; details: top dose 10 µM; top dose inferred
Experimental: as §1

[3] = compound: C=CC(=O)Nc1ccc(C(=O)c2sc(Nc3ccc(N4CCN(C)CC4)cc3OC)nc2N)cc1 [XMD15-27]; details: top dose 10.24 µM; top dose inferred
Experimental: as §1

Cell Line	AUC [1]	IC50 [1]	AUC [2]	IC50 [2]	AUC [3]	IC50 [3]
GRANTA-519 (B-cell lymphoma, suspension)	0.824	0.103 µM	0.991	> 10 µM	0.991	> 10.2 µM
Hs-578-T (breast, adherent)	0.625	0.0283 µM	0.96	> 10 µM	0.987	> 10.2 µM
RCC10RGB (kidney, adherent)	0.941	> 0.2 µM	0.961	> 10 µM	0.971	> 10.2 µM
TE-6 (oesophagus, adherent)	0.758	0.0801 µM	0.985	> 10 µM	0.985	> 10.2 µM
HCC1395 (breast, adherent)	0.877	> 0.2 µM	0.985	> 10 µM	0.973	> 10.2 µM
TE-11 (oesophagus, adherent)	0.879	0.174 µM	0.99	> 10 µM	0.988	> 10.2 µM
JVM-2 (lymphoid neoplasm, suspension)	0.651	0.0361 µM	0.943	> 10 µM	0.934	> 10.2 µM
JEG-3 (urogenital system, adherent)	0.917	> 0.2 µM	0.985	> 10 µM	0.99	> 10.2 µM
KOPN-8 (B-cell leukaemia, suspension)	0.473	0.0107 µM	0.989	> 10 µM	0.942	> 10.2 µM
D-423MG (glioma, adherent)	0.808	0.132 µM	0.958	> 10 µM	0.936	> 10.2 µM
G-402 (soft tissue, adherent)	0.461	0.00943 µM	0.947	> 10 µM	0.944	> 10.2 µM
NY (osteosarcoma, adherent)	0.911	> 0.2 µM	0.982	> 10 µM	0.989	> 10.2 µM
LAMA-84 (chronic myeloid leukaemia, suspension)	0.581		0.964	> 10 µM	0.967	> 10.2 µM
SW626 (ovary, adherent)	0.877	> 0.2 µM	0.978	> 10 µM	0.977	> 10.2 µM
KMS-11 (myeloma, suspension)	0.738	0.0528 µM	0.98	> 10 µM	0.98	> 10.2 µM
FTC-133 (thyroid, adherent)	0.606	0.0252 µM	0.981	> 10 µM	0.985	> 10.2 µM
CAL-12T (non-small cell lung carcinoma, adherent)	0.778	0.0911 µM	0.974	> 10 µM	0.953	> 10.2 µM
SNU-449 (liver, adherent)	0.897	> 0.2 µM	0.978	> 10 µM	0.986	> 10.2 µM
HCC1187 (breast, suspension)	0.929	> 0.2 µM	0.977	> 10 µM	0.986	> 10.2 µM

Cell Line	AUC [1]	IC50 [1]	AUC [2]	IC50 [2]	AUC [3]	IC50 [3]
NCI-H23 (lung adenocarcinoma, adherent)	0.832	0.126 µM	0.985	> 10 µM	0.988	> 10.2 µM
OCUM-1 (stomach, adherent)	0.883	> 0.2 µM	0.987	> 10 µM	0.987	> 10.2 µM
RPMI-7951 (melanoma, adherent)	0.56	0.0181 µM	0.98	> 10 µM	0.95	> 10.2 µM
SUP-B15 (lymphoblastic leukaemia, suspension)	0.599	0.023 µM	0.971	> 10 µM	0.969	> 10.2 µM
VCaP (prostate, adherent)	0.987	> 0.2 µM	0.984	> 10 µM	0.987	> 10.2 µM
KYAE-1 (oesophagus, suspension)	0.699	0.0483 µM	0.959	> 10 µM	0.908	> 10.2 µM
EW-7 (Ewing sarcoma, semi-adherent)	0.853	0.127 µM	0.977	> 10 µM	0.979	> 10.2 µM
D-336MG (glioma, adherent)	0.685	0.048 µM	0.981	> 10 µM	0.978	> 10.2 µM
TGW (neuroblastoma, adherent)	0.961	> 0.2 µM	0.992	> 10 µM	0.99	> 10.2 µM
HSC-39 (stomach, suspension)	0.917	> 0.2 µM	0.934	> 10 µM	0.962	> 10.2 µM
NCI-H1838 (lung adenocarcinoma, adherent)	0.896	> 0.2 µM	0.963	> 10 µM	0.984	> 10.2 µM
Farage (B-cell lymphoma, suspension)	0.337	0.00483 µM	0.992	> 10 µM	0.987	> 10.2 µM
EFO-27 (ovary, adherent)	0.557	0.0186 µM	0.967	> 10 µM	0.98	> 10.2 µM
COR-L88 (small cell lung carcinoma, adherent)	0.972	> 0.2 µM	0.984	> 10 µM	0.986	> 10.2 µM
SK-GT-4 (oesophagus, adherent)	0.506	0.013 µM	0.98	> 10 µM	0.948	> 10.2 µM
CAL-72 (osteosarcoma, adherent)	0.529	0.0152 µM	0.886	> 10 µM	0.984	> 10.2 µM
CTB-1 (B-cell lymphoma, suspension)	0.576	0.0218 µM	0.978	> 10 µM	0.934	> 10.2 µM
GMS-10 (glioma, adherent)	0.871	0.187 µM	0.984	> 10 µM	0.988	> 10.2 µM

IC50 is the fitted dose that halves viability relative to control wells, and lower means more sensitive; a fit beyond the top or the lowest dose is shown as a bound at that dose. AUC is the area under the same curve over the 256-fold range up to the top dose, as a fraction: 1 means no effect, lower means more sensitive. For some assays here: Where the top dose is marked as inferred, it comes from the curve model; the source does not state it.
